Holding throughout (test): co-IP; HEK 293 cells transfected with HA- and Flag-tagged constructs (or endogenous partner); 1 mg protein of RIPA extract, treated with RNase; anti-FLAG or anti-HA monoclonal antibody overnight at 4 °C, protein A Sepharose; western blot
Background: A western blot detects proteins with antibodies after separation by electrophoresis.

Protein sequences, listed by entry. Tags and fused reporters are not part of them. Lines headed by an entry give the natural chain unless they say otherwise; changes in a name come on top.
UniProt P26651: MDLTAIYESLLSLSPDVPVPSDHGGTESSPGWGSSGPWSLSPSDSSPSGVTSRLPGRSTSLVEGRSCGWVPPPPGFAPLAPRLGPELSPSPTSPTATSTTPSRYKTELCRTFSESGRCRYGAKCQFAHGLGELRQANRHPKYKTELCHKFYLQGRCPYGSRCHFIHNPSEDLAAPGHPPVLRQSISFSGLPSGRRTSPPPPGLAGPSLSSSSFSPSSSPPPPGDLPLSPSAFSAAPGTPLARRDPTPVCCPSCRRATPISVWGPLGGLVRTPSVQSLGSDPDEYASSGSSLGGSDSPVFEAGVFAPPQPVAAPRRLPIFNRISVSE
UniProt Q9Y6R4: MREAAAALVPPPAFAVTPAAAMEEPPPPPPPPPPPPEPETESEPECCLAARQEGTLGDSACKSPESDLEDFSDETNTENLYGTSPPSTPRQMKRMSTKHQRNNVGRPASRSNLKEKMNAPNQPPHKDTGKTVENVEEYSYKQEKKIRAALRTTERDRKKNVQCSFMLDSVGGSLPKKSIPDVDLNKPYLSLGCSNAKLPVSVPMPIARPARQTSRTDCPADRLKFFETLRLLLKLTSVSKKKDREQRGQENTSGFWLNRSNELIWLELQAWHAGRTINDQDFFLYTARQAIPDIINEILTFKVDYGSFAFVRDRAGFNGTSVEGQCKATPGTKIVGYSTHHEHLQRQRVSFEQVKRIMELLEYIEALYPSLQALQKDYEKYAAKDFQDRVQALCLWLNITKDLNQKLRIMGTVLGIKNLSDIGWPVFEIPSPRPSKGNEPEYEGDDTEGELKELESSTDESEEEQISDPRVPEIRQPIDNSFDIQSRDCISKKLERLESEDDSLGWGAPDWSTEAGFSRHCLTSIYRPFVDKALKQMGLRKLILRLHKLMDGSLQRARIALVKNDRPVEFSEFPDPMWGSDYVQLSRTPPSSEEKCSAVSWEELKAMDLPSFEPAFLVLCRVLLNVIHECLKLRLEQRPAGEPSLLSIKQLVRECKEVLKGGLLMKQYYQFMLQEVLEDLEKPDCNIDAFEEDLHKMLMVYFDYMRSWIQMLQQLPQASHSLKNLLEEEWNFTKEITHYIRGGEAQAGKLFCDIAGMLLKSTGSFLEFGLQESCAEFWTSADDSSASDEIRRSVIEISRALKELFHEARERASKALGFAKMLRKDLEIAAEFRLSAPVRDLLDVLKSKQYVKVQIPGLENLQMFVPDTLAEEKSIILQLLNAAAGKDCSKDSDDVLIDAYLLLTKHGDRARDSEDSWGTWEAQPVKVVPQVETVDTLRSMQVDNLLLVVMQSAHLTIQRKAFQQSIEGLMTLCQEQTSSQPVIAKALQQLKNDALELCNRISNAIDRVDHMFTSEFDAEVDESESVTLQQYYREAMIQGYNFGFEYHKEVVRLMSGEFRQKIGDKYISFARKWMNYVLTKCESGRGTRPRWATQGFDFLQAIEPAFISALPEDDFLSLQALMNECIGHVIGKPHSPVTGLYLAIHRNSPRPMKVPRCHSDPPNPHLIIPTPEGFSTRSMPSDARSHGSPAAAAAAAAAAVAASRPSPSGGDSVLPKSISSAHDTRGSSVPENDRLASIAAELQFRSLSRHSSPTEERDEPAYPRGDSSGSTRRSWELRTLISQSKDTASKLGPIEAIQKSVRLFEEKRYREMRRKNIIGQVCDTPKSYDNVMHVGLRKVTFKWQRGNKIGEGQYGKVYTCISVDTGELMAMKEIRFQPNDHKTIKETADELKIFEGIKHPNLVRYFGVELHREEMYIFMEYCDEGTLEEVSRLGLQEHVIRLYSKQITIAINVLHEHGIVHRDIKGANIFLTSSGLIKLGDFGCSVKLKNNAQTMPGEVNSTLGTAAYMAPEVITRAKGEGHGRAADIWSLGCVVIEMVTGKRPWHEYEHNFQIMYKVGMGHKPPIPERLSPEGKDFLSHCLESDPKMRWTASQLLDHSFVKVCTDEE

The target of assay [1] is T1, HA-tagged mouse TTP (HA-mTTP), wild type (mouse) (UniProt P22893).
T1 sequence: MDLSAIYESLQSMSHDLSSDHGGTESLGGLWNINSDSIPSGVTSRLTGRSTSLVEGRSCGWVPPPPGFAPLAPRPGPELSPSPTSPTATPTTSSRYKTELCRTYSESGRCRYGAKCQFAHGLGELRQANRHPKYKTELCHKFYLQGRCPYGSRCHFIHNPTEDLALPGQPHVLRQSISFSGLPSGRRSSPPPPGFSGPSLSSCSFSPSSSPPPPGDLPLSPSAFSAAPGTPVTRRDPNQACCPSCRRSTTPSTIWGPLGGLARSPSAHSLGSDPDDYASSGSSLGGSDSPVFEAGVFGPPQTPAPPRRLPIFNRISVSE

Another assay has as its target HA-hTTP/P309V (human) (UniProt P26651).
Assay [2] deals with HA-tagged mitogen-activated protein kinase kinase kinase 4 (HA-MEKK4) (UniProt Q9Y6R4).
The next assay concerns the target T2, HA-mTTP/T302P (mouse) (UniProt P22893).
T2 sequence: T1 sequence with T302P

Assay [3] addresses HA-tagged human tristetraprolin (HA-hTTP), full length (human) (UniProt P26651).

Among the data in article PMC2833206 are binding values, retold here.

Where a chain is given by its changes, count along the chain named. These are yes or no findings as the source states them, for the method shown. Binding seen in cells or lysates may run through a third protein. Some binding calls cover weakened binding; strength is not graded here. For some assays here: Tags and fused reporters may be left off the sequences shown.

Regarding “Flag-tagged human CIN85 (Flag-CIN85), full length (from UniProt Q96B97-1 1-665)”, the binding result in assay [1] is “no binding”; with HA-hTTP/P309V (human) it was “no binding”; in assay [2], “binds”; in the assay with HA-mTTP/T302P (mouse), “binds”; in assay [3] it was “binds”.
